From PubChem BioAssay AID602179 (National Center for Advancing Translational Sciences (NCATS), 2012)
In all, about 390,000 compounds went through this assay and about 360 (0.092%) were called active. Inconclusive means that the source gave no clear call. Such entries were picked first, then a sample of the others. The call rests on the fitted dose curve; in most records, active means well fitted inhibition curve with a large enough effect; inconclusive means small, poorly fitted or top-dose-only effect; inactive means no such curve, though single readings can be large or run the other way. Potencies of inconclusive entries are doubtful fits and often do not repeat.

Target: Isocitrate dehydrogenase [NADP] cytoplasmic (Homo sapiens) (UniProt O75874)
Experiment: qHTS for Inhibitors of mutant isocitrate dehydrogenase 1 (IDH1): qHTS; further: nearly all actives have a fitted effect of over 65% in size
Details: IDH1-R132H enzyme, NADPH consumption, diaphorase/resazurin fluorescence; series mostly up to 76.6 µM
Summary of the method: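 IDH1-R132H (0.5 ug/mL) preincubated 30 min with compound, then NADPH (0.016 mM) and alpha-KG (2 mM) added; 80 min at RT, pH 7.5. Remaining NADPH coupled via diaphorase/resazurin to fluorescence (540/590 nm); concentration-response curves normalized to no-enzyme control.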
Potency means the concentration at half of the fitted maximal effect; tags describe the fitted curve by direction and shape.

Row | SMILES | Potency
1 | NNC(=O)c1cc2c(N3CCC(Cc4ccccc4)CC3)ncnc2s1 | inconclusive: 58.5 µM [inhibitor, single point]
2 | Cc1ccc(Oc2nc(CN3CCOCC3)nc3sc4c(c23)CCC(C)C4)cc1C (stereo not drawn) | inconclusive: 58.5 µM [inhibitor, single point]
3 | COc1cc([N+](=O)[O-])ccc1-c1ccc(/C=C2\C(=O)ON=C2c2ccccc2)o1 | inconclusive: 32.9 µM [inhibitor, partial curve]
4 | COc1cc(/C=C2/SC(=S)N(Cc3ccccc3)C2=O)cc(Cl)c1O | inconclusive: 44.7 µM [inhibitor, partial curve, poor fit]
5 | CC1CC(N(C(=O)c2ccco2)c2ccccc2)c2ccccc2N1C(=O)c1ccco1 (stereo not drawn) | inconclusive: 46.5 µM [inhibitor, single point]
6 | COc1ccc(C)cc1NC(=O)Nc1ccccc1 | inactive
7 | Clc1cccc(N=C2NN=C(c3ccc4c(c3)OCCO4)CS2)c1 | inconclusive: 8.26 µM [inhibitor, partial curve, poor fit]
8 | C=CCn1c(SCC(=O)N2CC(=O)Nc3ccccc32)nc2scc(-c3cccs3)c2c1=O | inconclusive: 5.21 µM [inhibitor, full curve, poor fit]
9 | CCOC(=O)c1cc(-c2ccc(/C=C3/C(=O)N(c4ccc(C(=O)O)cc4)N=C3C)o2)ccc1Cl | inconclusive: 5.85 µM [inhibitor, partial curve, poor fit]
10 | NS(=O)(=O)c1ccc(N=Nc2c[nH]c(=O)c(O)c2)cc1 | inactive
11 | N#Cc1ccccc1CN1C(=O)S/C(=C/c2cccn2-c2ccc(C(=O)O)cc2)C1=O | inconclusive: 46.5 µM [inhibitor, partial curve, poor fit]
12 | Cc1[nH]n(-c2ncc(-c3ccc(Cl)cc3)s2)c(=O)c1C(c1ccc(Cl)cc1)C(C#N)C#N (stereo not drawn) | inconclusive: 70.8 µM [inhibitor, single point]
13 | COc1ccc(C2CC(C(C)(C)C)=NN2c2ccc(S(N)(=O)=O)cc2)cc1 (stereo not drawn) | inconclusive: 50.1 µM [inhibitor, single point]
14 | COc1ccc(Cn2c(SCc3cc(C)ccc3C)nc3cc(OC)c(OC)cc3c2=N)cc1 | inconclusive: 32.9 µM [inhibitor, partial curve, poor fit]
15 | CCOC(=O)Cn1nc(-c2ccc(Cl)cc2)ccc1=O | inactive
16 | S=C(NCC1CCCO1)N1CCN(c2nc(-c3ccc(Cl)cc3)cs2)CC1 (stereo not drawn) | inactive
17 | CN(C(=O)CSc1nc(C2CCCC2)nc2c1c(=O)n(C)c(=O)n2C)c1ccccc1 | inconclusive: 35.5 µM [inhibitor, partial curve]
18 | Cc1ccc(N(C(=O)Cc2cccs2)C(C(=O)NC2CCCCC2)c2ccccn2)cc1C (stereo not drawn) | inconclusive: 36.9 µM [inhibitor, partial curve]
19 | N#C/C(=C/c1cn[nH]c1-c1ccc(Br)cc1)C(=O)O | inconclusive: 46.5 µM [inhibitor, single point]
20 | Cc1ccc(-c2csc3ncnc(SCC(N)=O)c23)cc1 | inconclusive: 58.5 µM [inhibitor, single point]
21 | C=CCN1C(=O)C(Cc2ccc(SC(F)F)cc2)SC1=Nc1ccc(C(=O)O)cc1 (stereo not drawn) | inconclusive: 44.7 µM [inhibitor, single point]

Row | SMILES | Potency
22 | CN(CC(=O)N1CCN(c2ccccn2)CC1)S(=O)(=O)c1ccccc1 | inactive
23 | Cc1ccc(S(=O)(=O)N(C)C)cc1NC(=S)Nc1cccc2ccccc12 | inactive
24 | CCOc1ccc(C2=C(C(=O)CC)Sc3nncn3N2C(=O)CC)cc1 | inconclusive: 50.1 µM [inhibitor, partial curve, poor fit]
25 | Clc1ccc(N=c2ssnc2Cl)cc1 | inconclusive: 58.5 µM [inhibitor, single point]
26 | CC(=O)Oc1ccc(C(=O)Nc2cccc(C(=O)c3ccc(C)c(C)c3)c2)cc1 | inconclusive: 46.5 µM [inhibitor, partial curve]
27 | COc1ccc(C(=O)c2cn(Cc3cccc(C)c3)c3cc4c(cc3c2=O)OCCO4)cc1OC | inconclusive: 50.1 µM [inhibitor, partial curve, poor fit]
28 | COc1cc2c(-c3ccc4cc[nH]c4c3)c(-c3ccsc3)oc(=O)c2cc1OC | inconclusive: 31.6 µM [inhibitor, partial curve]
29 | CC(=O)Oc1cc(O)c2c(=O)c(OC(C)=O)c(-c3ccc(OC(C)=O)c(OC(C)=O)c3)oc2c1 | inconclusive: 39.8 µM [inhibitor, partial curve]
30 | COC(=O)c1c(SCC(=O)Nc2ccccc2OC)[nH]c2ccccc2c1=O | inconclusive: 50.1 µM [inhibitor, single point]
31 | Cc1cc(C)cc(N(C(=O)Cc2cccs2)C(C(=O)NC2CCCCC2)c2ccccn2)c1 (stereo not drawn) | inconclusive: 9.27 µM [inhibitor, full curve]
32 | CCC(Sc1nc2ccsc2c(=O)n1Cc1ccc(C(=O)O)cc1)C(=O)Nc1ccc(Cl)cc1 (stereo not drawn) | inconclusive: 50.1 µM [inhibitor, single point]
33 | CC(=O)Oc1ccc(C(=O)Nc2ccc(S(=O)(=O)N3CCOCC3)cc2)cc1 | inconclusive: 50.1 µM [inhibitor, single point]
34 | Cc1ccc(CN(C(=O)COc2cccc(Cl)c2)c2ccccn2)o1 | inactive
35 | COc1cc(O)ccc1-c1nc2ccc(Br)cn2c1Nc1ccccc1C | inconclusive: 35.5 µM [inhibitor, partial curve]
36 | CCOC(=O)CSC1=NC(=O)/C(=C\c2ccc(Cl)cc2)S1 | inconclusive: 58.5 µM [inhibitor, single point]
37 | O=c1[nH]c(/C=C/c2cccc([N+](=O)[O-])c2)c([N+](=O)[O-])c(=O)[nH]1 | active: 44.7 µM
38 | O=C1c2ccccc2-c2n[nH]c(=O)c3ccc(N4CCCCC4)c1c23 | inconclusive: 11.7 µM [inhibitor, full curve]
39 | Cc1cccn2c(=O)c(/C=C(\C#N)S(=O)(=O)c3ccc(Cl)cc3)c(N3CCC(C(N)=O)CC3)nc12 | inconclusive: 23.3 µM [inhibitor, single point]
40 | Oc1ccc(-c2csc(Nc3ccc4c(c3)OCO4)n2)c(O)c1 | inconclusive: 70.8 µM [inhibitor, single point]
41 | COc1ccc(S(=O)(=O)NCc2cccnc2)cc1NC(=O)c1ccccc1 | inactive
42 | CCN(C(=O)c1cn(-c2ccc(OC)cc2)c(=O)c2ccccc12)c1cccc(Cl)c1 | inconclusive: 50.1 µM [inhibitor, single point]

Row | SMILES | Potency
43 | COc1ccc(OCC(=O)Nc2cc(-c3nn(C)c(=O)c4ccccc34)ccc2OC)cc1 | inactive
44 | CCCCCn1cc2c(c1-c1ccc(Cl)cc1)c(=O)n(C)c(=O)n2C | inconclusive: 44.7 µM [inhibitor, partial curve, poor fit]
45 | Cc1ccc(Nc2sc(C(=O)c3ccccc3)c(N)c2C(=O)NC(C)C)cc1 | inconclusive: 50.1 µM [inhibitor, single point]
46 | Cc1cccc(Cn2cc(C(=O)c3ccccc3)c(=O)c3cc4c(cc32)OCO4)c1 | inconclusive: 70.8 µM [inhibitor, single point]
47 | Cc1cc(C(=O)CCl)c(C)n1-c1cccc(S(=O)(=O)N2CCOCC2)c1 | inconclusive: 16.5 µM [inhibitor, full curve]
48 | CC(=O)C1=C(c2ccc(Cl)c(Cl)c2)N(C(C)=O)n2c(C)nnc2S1 | active: 44.7 µM
49 | CCOC(CN=c1nc(N(C)C)ss1)OCC | inactive
50 | COc1ccc(C2c3c(n(C)c4ccccc34)C(=O)N2CC(=O)Nc2c(C)cc(C)cc2C)cc1 (stereo not drawn) | inconclusive: 39.8 µM [inhibitor, partial curve]
51 | CC(C)c1ccc(C2c3[nH]c4ccccc4c3C[C@H]3C(=O)N(c4ccccc4C(=O)N4CCC(C(=O)O)CC4)C(=O)N23)cc1 (stereo partly drawn) | inconclusive: 50.1 µM [inhibitor, partial curve, poor fit]
52 | CCN1CCN(CCCNC(=O)c2cn(CCOC)c(=O)c3c2c2ccccc2n3C)CC1 | inactive
53 | COc1ccc(CCNC(=O)c2csc3c2CCCCC3)c(OC)c1 | inconclusive: 50.1 µM [inhibitor, single point]
54 | COc1ccc2c(c1)c1ccc3c(c1n2C)C(=O)C=CC3=O | active: 35.5 µM
55 | Cc1cccc(Cn2cc(/C=C/[N+](=O)[O-])c3ccccc32)c1 | inconclusive: 36.9 µM [inhibitor, partial curve]
56 | C=CCc1ccccc1OCCSc1nc(-c2cccs2)nc2cc(=O)[nH]n12 | inconclusive: 44.7 µM [inhibitor, single point]
57 | CSc1nnc(-c2ccccc2)c(-c2ccccc2)n1 | inactive
58 | CCOC(=O)c1ccc(N2C(=O)c3n[nH]c(-c4ccco4)c3C2c2ccc(OC)cc2OC)cc1 (stereo not drawn) | inconclusive: 39.8 µM [inhibitor, partial curve]
59 | Cc1ccccc1OCC(=O)Nc1ccc2oc(-c3ccc(F)cc3)nc2c1 | inconclusive: 28.2 µM [inhibitor, single point]
60 | CCc1ccc([C@@H]2CC=C(C(=O)O)[C@H](c3ccc(Cl)cc3)N2S(=O)(=O)c2ccc(C)cc2)cc1 | inconclusive: 70.8 µM [inhibitor, single point]
61 | COc1ccc2c(C)cc(SCC(=O)N3CCOCC3)nc2c1 | inactive
62 | Cc1ccc(NC(=O)C2CCCN(c3ncnc4onc(C)c34)C2)c(Cl)c1 (stereo not drawn) | inactive
63 | COc1cc(OC)cc(C(=O)Nc2ccc3nc4c(c(Nc5ccc(OC)c(OC)c5)c3c2)CCCC4)c1 | inconclusive: 44.7 µM [inhibitor, partial curve, poor fit]
